This is one part of the list.
B1: chr5:24309113:24309114:-_ENSMUSG00000028945_ENSMUST00000030787|mus_mus|FALSE|FALSE (ssRNA)
RNA: GGGAGUUCUACAGUCCGACGAUCUUUUAUUUACAAGUAUACAUUUAACACAAUGAAAUAAACACUGAUAUAUUGAAGCCUAGUUAAUAGUAGUGUAACAUGUGUAUCAUUUUGAUGAUUACAUUAUUUUAAACAACAAACUACCAACAGAGGAUUGAGCAUCA
B2: chr5:140076784:140076785:+_ENSG00000112855_ENST00000230771|hu_hu|FALSE|FALSE (ssRNA)
RNA: GGGAGUUCUACAGUCCGACGAUCCCCAGCCUGAGUUGGGGUCUGCAGCAGCACUGCUUCAUAGAUCACUCCUGUAUAGUAGUCUAGGCCCCGAGCCAGGCUGAGGUCAAAGGAGAUCUUAUCAGCAAUUCCAAAUAAAGUCAGCAACAGAGGAUUGAGCAUCA
B3: chr2:5814250:5814251:-_ENSMUSG00000025816_ENSMUST00000102981|mus_hu|mus_mus_mus_hu_True|1_68 (ssRNA)
RNA: GGGAGUUCUACAGUCCGACGAUCUUCCUUUCCGGUUUCUGAAUUUCUGGUAGAACUGCACAGAAUGGUUUAAUAACUUCUAAAAAUUUGAUGCCCAUGGCUGCUGCUGGGGAGGCCCAGGGGGAAACCGCGGCCUCGCAGCUGCAACAGAGGAUUGAGCAUCA
B4: chr16:94690093:94690094:+_ENSMUSG00000040785_ENSMUST00000117648|mus_hu|mus_mus_mus_hu_True|38_68 (ssRNA)
RNA: GGGAGUUCUACAGUCCGACGAUCGGGCUGGGAUGACGGACACACAGCCUCGAUUCCAGGGGGAAAAAAAAAUAGCCGAUACUAAUUAAAAAGUGUUUUUAUAAUUGGAAAAUCAGAUUACAUCUAUAAAAGAUGAAAAGCAAACAACAGAGGAUUGAGCAUCA
B5: chr7:140404665:140404666:+_ENSG00000090266_ENST00000247866|hu_hu|hu_hu_hu_mus_False|78_108 (ssRNA)
RNA: GGGAGUUCUACAGUCCGACGAUCUGCGUACAGAGUGCCAGAGAGUUUACAGUGUCAGUCUUCAUCAUCAGGAGGGAUUCCCAGUUCUUCAUCUGUCCACUGUGAAGGAUCUGGAUAUGAAAAGUGACCCAGCACAGCAUCCGACAACAGAGGAUUGAGCAUCA
B6: chr5:128440902:128440903:+_ENSG00000066583_ENST00000173527|hu_mus|hu_hu_hu_mus_True|58_98 (ssRNA)
RNA: GGGAGUUCUACAGUCCGACGAUCUUGAACGGUGCUGCCAAGACCUUUGGGGUAUUGUUCCGUUAUGAUAACUGGAAUUCCUAAAAUCCGAGCUCCUUGCAACAGUCUCUGUCCCACACUAAUGAUGUCCCCAAAGUAUUUGAUCAACAGAGGAUUGAGCAUCA

Target: T1, UNK ZnF1-3 (human, UniProt Q9C0B0 31-174)
T1 sequence: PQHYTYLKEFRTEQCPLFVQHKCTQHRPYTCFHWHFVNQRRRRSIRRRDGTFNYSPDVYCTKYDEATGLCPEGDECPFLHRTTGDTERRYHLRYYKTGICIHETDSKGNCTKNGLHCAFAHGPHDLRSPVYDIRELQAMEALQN
Assay: nsRBNS (natural sequence RNA bind-n-seq); RBNS binding buffer (assumed for nsRBNS): 25 mM Tris pH 7.5, 150 mM KCl, 3 mM MgCl2, 0.01% Triton X-100, 500 ug/ml BSA, 20 U/ml SUPERase-In, 4 C; UNK is unkempt and MSI1 is Musashi-1; names of the RNAs are library labels; protein concentration not given here; high values mean tight binding

Binder	binding signal [enrichment R]
B1	0.344
B2	0.57
B3	1.23
B4	1.5
B5	1.25
B6	0.895
